# The campaign covered roughly 410,000 compounds. About 6,400 (1.6%) were called active. Inconclusive results, whose numbers are uncertain, are shown with a selection of clear calls. Calls follow the shape of the dose curve; as a rule, active = well fitted inhibition curve with a large enough effect; inconclusive = small, poorly fitted or top-dose-only effect; inactive = no such curve, though single readings can be large or run the other way. Potencies of inconclusive entries are left out as doubtful fits.
# Molecular target: Glucagon-like peptide 1 receptor (Homo sapiens) (UniProt P43220)
# UniProt P43220, sequence (P43220 whole entry, looked up): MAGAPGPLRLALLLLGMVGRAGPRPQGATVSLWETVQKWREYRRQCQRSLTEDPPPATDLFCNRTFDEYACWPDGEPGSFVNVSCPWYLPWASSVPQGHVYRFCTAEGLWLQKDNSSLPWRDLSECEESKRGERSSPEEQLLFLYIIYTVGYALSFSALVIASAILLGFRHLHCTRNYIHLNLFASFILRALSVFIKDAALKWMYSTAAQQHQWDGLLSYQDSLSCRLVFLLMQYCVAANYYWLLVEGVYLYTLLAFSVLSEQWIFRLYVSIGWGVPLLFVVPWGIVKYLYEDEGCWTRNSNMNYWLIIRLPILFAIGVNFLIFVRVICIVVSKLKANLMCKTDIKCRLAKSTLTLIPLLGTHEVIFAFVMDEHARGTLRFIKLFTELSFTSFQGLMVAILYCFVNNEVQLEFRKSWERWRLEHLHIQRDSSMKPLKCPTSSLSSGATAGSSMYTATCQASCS
# Assay: qHTS of GLP-1 Receptor Inverse Agonists (Inhibition Mode); also: nearly all actives have a fitted effect of over 55% in size
# Conditions: HEK293 GLP-1R CRE-luciferase, luminescence, 24 h, GLP-1R form is constitutively active; series mostly up to 38.3 µM
# Method in brief: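 Using stably transfected HEK293 (constitutively active GLP-1R, cAMP-luciferase reporter), compounds were incubated 24 hr and luciferase measured by luminescence.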
# Potency is read from the fitted curve at half-maximal effect; tags tell the direction and shape of the fitted curve.
row,Compound,Potency
1,O=C(CCCN1C(=O)/C(=C\c2cccc(Br)c2)SC1=S)Nc1ccc(C(=O)O)cc1,"inconclusive [inhibitor, single point]"
2,Cc1ccc(S(=O)(=O)Nc2cc3c(cc2NCc2ccccc2)n(C)c(=O)n3C)cc1,inactive
3,COc1ccc(S(=O)(=O)NCC2CCCN(Cc3ccc(OC)cc3F)C2)cc1 (centres undefined),"inconclusive [inhibitor, full curve, poor fit]"
4,O=C(NCCN1CCN(c2cccc(Cl)c2)CC1)Nc1ccccc1C(F)(F)F,"inconclusive [inhibitor, partial curve, poor fit]"
5,Cc1ccc(C)c(S(=O)(=O)N2CCCC2CNC(=O)C(=O)NCc2ccccc2C)c1 (centres undefined),"inconclusive [inhibitor, partial curve, poor fit]"
6,Cc1nc(CN2CCN(S(=O)(=O)c3c(Cl)cc(Br)cc3Cl)CC2)cs1,"inconclusive [inhibitor, partial curve, poor fit]"
7,Cc1ccc(CNc2nc(-c3ccco3)nn2S(=O)(=O)c2ccc3ccccc3c2)cc1,"inconclusive [inhibitor, single point]"
8,CC(=O)NCCn1c(SCc2ccccc2C)nc2ccccc2c1=O,"inconclusive [inhibitor, full curve, poor fit]"
9,O=C(CSc1ncc(-c2ccccc2)[nH]1)Nc1ccc(Cl)cc1,"inconclusive [inhibitor, single point]"
10,O=[N+]([O-])c1cccc(OCCCN2CCC(Cc3ccccc3)CC2)c1,"inconclusive [inhibitor, single point]"
11,Cc1ccc(/C=C\c2nccc3c2[nH]c2ccccc23)cc1,"inconclusive [inhibitor, partial curve, poor fit]"
12,Cc1ccc(CC(=O)NCc2ccc(Cl)cc2)cc1,"inconclusive [inhibitor, full curve]"
13,COc1ccc(-c2cc(C)no2)cc1S(=O)(=O)N(C)c1cccc(C)c1,"inconclusive [inhibitor, single point]"
14,Cc1cc(C)nc(NC(=O)c2c(F)c(F)c(F)c(C(=O)Nc3cc(C)cc(C)n3)c2F)c1,"inconclusive [inhibitor, single point]"
15,Cc1c(C)n(Cc2ccc(F)cc2)c2ccc(C(=O)NCc3ccco3)cc12,"inconclusive [inhibitor, single point]"
16,O=C1[C@@H]2Cc3c([nH]c4ccccc34)C(c3ccc(Cl)cc3)N2C(=O)CN1CCO (some centres undefined),"inconclusive [inhibitor, partial curve, poor fit]"
17,O=C1C2CCCN2C(c2ccccc2)N1c1ccc(Cl)cc1 (centres undefined),"inconclusive [inhibitor, partial curve, poor fit]"
18,Cc1ccc(C(=O)CN2/C(=C(\O)c3ccccc3)C(=O)c3ccccc3S2(=O)=O)c(C)c1,inactive
19,Cc1ccsc1CN(C(=O)c1oc2ccc(Br)cc2c1C)C1CCS(=O)(=O)C1 (centres undefined),"inconclusive [inhibitor, single point]"
20,CCn1cc(C(=O)N2CCc3ccccc32)c(=O)c2cc(S(=O)(=O)N(C)C3CCCCC3)ccc21,"inconclusive [inhibitor, single point]"
21,COc1ccc(S(=O)(=O)N(Cc2cccs2)C2CCCC2)cc1,"inconclusive [inhibitor, partial curve, poor fit]"
22,COC(=O)[C@@]12C[C@@H](CC(=O)N3CCCC3)C(=O)N(Cc3cccc4ccccc34)C1=CCC(C)(C)C2,"inconclusive [inhibitor, single point]"

row,Compound,Potency
1,CCOc1ccc(C2c3c(oc4ccc(C)cc4c3=O)C(=O)N2CCCN2CCOCC2)cc1 (centres undefined),inactive
2,CCN1c2ccccc2-c2nc(SCC(=O)NCc3ccc(Cl)cc3)ncc2S1(=O)=O,"inconclusive [inhibitor, partial curve, poor fit]"
3,CCOc1ccc(Nc2c(S(=O)(=O)c3ccc(Cl)cc3)cnc3ccc(OCC)cc23)cc1,"inconclusive [inhibitor, single point]"
4,Cc1cc(-c2ccc(NS(=O)(=O)c3ccccc3)c(C)c2)ccc1NS(=O)(=O)c1ccccc1,"inconclusive [inhibitor, full curve]"
5,Cc1cc(N2CCN(C)CC2)nc2ccc(NC(=O)Nc3cccc(Cl)c3)cc12,active: 10 µM
6,Cc1c(C)n(Cc2ccccc2)c2ncnc(Cl)c12,"inconclusive [inhibitor, partial curve, poor fit]"
7,Cc1ccc(NC(=O)c2cc(-c3cc(Cl)ccc3O)n[nH]2)cc1C,inactive
8,Cc1cc(C)nc(SCc2nnc(SCc3ccccc3Cl)o2)n1,"inconclusive [inhibitor, full curve, poor fit]"
9,CSc1cccc(N2CC(C(=O)NCCC3=CCCCC3)CC2=O)c1 (centres undefined),"inconclusive [inhibitor, single point]"
10,O=C(NC1CCCCC1)N1CCN(c2ccc(Cl)cc2)CC1,"inconclusive [inhibitor, single point]"
11,CC1(C)N=C(c2ccccc2)C(=O)N1,inactive
12,Cc1ccc(C(NC(=O)C(C)C)c2cc([N+](=O)[O-])c3cccnc3c2O)cc1 (centres undefined),"inconclusive [inhibitor, single point]"
13,CCCCN(C)C(=O)C1CCN(Cc2cccnc2)CC1,inactive
14,COc1ccc(Cl)cc1-c1cc(C(=O)NCc2cc(C(F)(F)F)cc(C(F)(F)F)c2)[nH]n1,"inconclusive [inhibitor, single point]"
15,Cc1ccc(S(=O)(=O)N2CCC(=O)N(C(COCc3ccccc3)Cc3ccccc3)CC2)cc1 (centres undefined),"inconclusive [inhibitor, partial curve, poor fit]"
16,COc1ccc(Cl)cc1NC(=O)CN1C(=O)C(C)(C)c2cc(S(=O)(=O)N3CCCCC3)ccc21,active: 11.2 µM
17,CC1(C(=O)NCc2cccs2)CCN1C(=O)Cc1ccc(Cl)cc1Cl (centres undefined),inactive
18,CC1(C(=O)NCc2cccc3ccccc23)CCN1C(=O)C1(c2ccccc2)CC1 (centres undefined),"inconclusive [inhibitor, single point]"
19,COc1ccccc1OCc1csc(N)n1,"inconclusive [inhibitor, single point]"
20,CSc1sc(C(=O)N2CCCCC2)c(-c2cccs2)c1C#N,"inconclusive [inhibitor, partial curve, poor fit]"
21,Cc1ccccc1CNC(=O)c1oc2c(c1C)-c1[nH]ncc1CC2,inactive
22,O=S(=O)(Nc1nc2ccccc2nc1OCC(F)(F)F)c1cccs1,"inconclusive [inhibitor, partial curve, poor fit]"

row,Compound,Potency
1,COc1ccc(-n2cc(C#N)c(=O)n(Cc3ccc(F)cc3)c2=O)cc1,inactive
2,COc1ccc(-n2nc(C(=O)O)c(=O)n(C)c2=O)cc1,inactive
3,CCNc1nc(Cl)nc(NC2CCCCC2)n1,inactive
4,CN(Cc1ccccc1)S(=O)(=O)c1ccc2[nH]c3c(c2c1)CCCCC3,"inconclusive [inhibitor, single point]"
5,Cn1nnc2cc(C(=O)NCc3ccc4c(c3)OCO4)ccc21,inactive
6,CCN(CC)CC(=O)NN(Cc1ccccc1)c1ccccc1,"inconclusive [inhibitor, single point]"
7,Cc1cccc2sc(N(CCCN(C)C)C(=O)CCS(=O)(=O)c3ccccc3)nc12,"inconclusive [inhibitor, partial curve, poor fit]"
8,Cc1ccc([N+](=O)[O-])cc1S(=O)(=O)Nc1cccc(-c2ccc(N3CCCC3)nn2)c1,"inconclusive [inhibitor, single point]"
9,COc1cc(OC)c(N(C)C(=O)c2cn(C3CCCC3)c(=O)c3c2c2ccccc2n3C)cc1Cl,"inconclusive [inhibitor, single point]"
10,O=C(c1cc(COc2ccc(F)cc2Cl)on1)N1CC[C@@H]2CCCC[C@H]2C1,"inconclusive [inhibitor, partial curve, poor fit]"
11,CCc1ccc(Nc2nnc(SCC(=O)Nc3cccc(S(=O)(=O)NC4=NCCCCC4)c3)s2)cc1,"inconclusive [inhibitor, single point]"
12,Cc1ccccc1OCCCn1c(=O)sc2ccccc21,"inconclusive [inhibitor, single point]"
13,O=C(Nc1cccc(C(F)(F)F)c1)N1CC2CCCN2c2ccccc21 (centres undefined),"inconclusive [inhibitor, single point]"
14,c1ccc2c(CCNc3ncnc4nc[nH]c34)cccc2c1,"inconclusive [inhibitor, single point]"
15,CC1=C(C(=O)N2CCCCCC2)CC(CC(=O)NCC2CCCCC2)C(=O)N1Cc1ccc(F)cc1 (centres undefined),inactive
16,Cc1c(C(=O)NCc2cccc(C(F)(F)F)c2)sc(=O)n1Cc1ccc(S(=O)(=O)N(C)C)cc1,"inconclusive [inhibitor, single point]"
17,CC(C)COc1ccc(Cc2cnc(N)nc2N)cc1,"inconclusive [inhibitor, partial curve, poor fit]"
18,CC(=O)c1cc(-c2ccc(F)cc2)n(CC(=O)NC2CCC(C)CC2)c1C (centres undefined),inactive
19,Cc1ccc2nnc(Cl)n2n1,inactive
20,O=c1ccc(S(=O)(=O)N2CCCC2)cn1Cc1nc(-c2ccccc2)no1,"inconclusive [inhibitor, partial curve]"
